Assay results: PubChem BioAssay AID1508623 (National Center for Advancing Translational Sciences (NCATS), 2021)
Out of some 48,000 compounds screened, about 450 (0.94%) were called active. Inconclusive results (about 19%) are left out. The call rests on the fitted dose curve; in most records, active means well fitted inhibition curve with a large enough effect; inconclusive means small, poorly fitted or top-dose-only effect; inactive means no such curve, though single readings can be large or run the other way. The list shows a part of the results.

Assay: Primary qHTS for Identification of Small Molecule Inhibitors of Huntingtin Promoter Activity; further: nearly all actives have a fitted effect of over 50% in size
Conditions: HEK293 HTT promoter firefly luciferase reporter (activity 0% = vehicle and -100% = no light), 24 h; series mostly up to 57.5 µM; activity change, negative = inhibition: at the top concentration
Procedure, shortened: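 HEK293 Fluc reporter, 2,500 cells/well, 24 h pre-culture; cpds up to 57.5 uM final, 24 h 37 degrees C; Dual-Glo, 10 min RT; normalized vehicle = 0%, zero RLU = -100%.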

Activity change, negative = inhibition, inactive:
CCOc1ccccc1O[C@H](c1ccccc1)[C@H]1CNCCO1 -3.8%, COc1cccc(N2CC(NC(=O)C3CC3)CC2=O)c1 (stereo unspecified) -4.02%, COc1ccc(NC(=O)Cn2c(=O)n(-c3ccc(C)c(C)c3)c(=O)c3c(C)c(C)sc32)cc1 -20.6%, Cc1ccc(CCNC(=O)c2ccc(NC(=O)N3CCSc4ccccc43)cc2)cc1 -7.39%, CCOc1ccc2c(c1)c(=O)c(C(=O)c1ccc(CC)cc1)cn2CC(=O)Nc1ccccc1C -8.75%, Cc1ccc(C)c(N2CCN(c3nc4c(S(=O)(=O)c5ccccc5)nnn4c4ccc(Cl)cc34)CC2)c1 -2.04%, CCOC(=O)c1c(S(=O)(=O)N2CCC(C(=O)Nc3cccc(C)n3)CC2)c(C)n(C)c1C -7.97%, CCC(C)NC(=O)Cn1c(=O)ccc2cc(S(=O)(=O)N3CCCC3)ccc21 (stereo unspecified) 12.8%, CCCN(C(=O)c1cc2c(=O)oc3ccccc3c2s1)c1ccccc1C -6.74%, Cc1ccc(NC(=O)Cn2nnc(C(=O)NCCc3ccccc3)c2N)cc1Cl 4.4%, COCC(=O)N1c2nc(-c3ccco3)nn2C2(CCCCC2)[C@@H]2CCCC[C@@H]21 -14.5%, CCc1ccc2c(c1)c(=O)c(S(=O)(=O)c1ccccc1)cn2CC(=O)Nc1ccc(OC)cc1 -17.3%, O=C(CSc1nc2ccsc2c(=O)n1Cc1ccccc1Cl)NCc1ccc(Cl)cc1 -4.15%, O=C(CSc1nc2ccccc2n1Cc1c(F)cccc1Cl)N1CCN(c2ccc(F)cc2)CC1 -0.869%, CCOc1cc(CNC(=O)c2ccc3nc(CCc4ccccc4)oc3c2)ccc1OC -12.3%, COc1ccc(NC(=O)CN2C(=O)C3(SCC(=O)N3c3cccc(OC)c3)c3ccccc32)cc1 (stereo unspecified) 0.0444%, Cc1ccc(S(=O)(=O)NCCc2csc3nc(-c4ccccc4C)nn23)cc1 -19.7%, O=C(Nc1nnc(SCc2cc(=O)n3cc(Cl)ccc3n2)s1)c1cccc(F)c1 1.34%, O=C(c1ccc2c(Cl)c3c(nc2c1)CCCC3)N1CCN(c2ccccc2F)CC1 -11.3%, COc1ccc(N2CC(NC(=O)c3c(F)cccc3Cl)CC2=O)cc1OC (stereo unspecified) -9.74%, Cc1ccccc1NC(=O)c1cnc2sc(N3CCCC3)nn2c1=O 10.8%, CCC(C(=O)N1CCN(c2ccccc2)CC1)n1nc(C)c2sc3ccccc3c2c1=O (stereo unspecified) -5.72%, COc1cccc(C2=CC(c3ccccc3F)n3c(nc4ccccc43)N2)c1 (stereo unspecified) 24.5%, CCOc1ccc(N2CC(c3nc4ccccc4n3CCOc3ccc(CC)cc3)CC2=O)cc1 (stereo unspecified) -16.2%, Cc1cc(C)cc(NC(=O)Cn2c3ncccc3c(=O)n2-c2ccc(C)c(C)c2)c1 -24.2%, O=C(NCc1ccccc1)c1ccc2c(c1)nc1n2CCCCC1 18.7%
